Test results from the supplement of paper PMC8728848.
The other results are listed elsewhere or left out.

Experiments:
Assay in all cases: glycan array binding signal (z-score within array); higher = stronger binding
Settings in all cases: glycan notation: IUPAC condensed, linker removed
[1] = biological target: Neu5Ac(a2-3)Gal(b1-4)GlcNAc(b1-2)[Neu5Ac(a2-3)Gal(b1-4)GlcNAc(b1-4)]Man(a1-3)[GlcNAc(b1-4)][Neu5Ac(a2-3)Gal(b1-4)GlcNAc(b1-2)[Neu5Ac(a2-3)Gal(b1-4)GlcNAc(b1-6)]Man(a1-6)]Man(b1-4)GlcNAc(b1-4)GlcNAc
Method in brief: (§1)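 The Consortium for Functional Glycomics database supplied 3228 glycan arrays, of which those lacking an available protein sequence were dropped. The binding signal, a within-array Z-score, was averaged across arrays of the same protein sequence and across linkers. Negative scores can be read as non-binding.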

[2] = biological target: Neu5Ac(a2-3)Gal(b1-4)GlcNAc(b1-2)[Neu5Ac(a2-3)Gal(b1-4)GlcNAc(b1-4)]Man(a1-3)[GlcNAc(b1-4)][Neu5Ac(a2-3)Gal(b1-4)GlcNAc(b1-4)Man(a1-6)]Man(b1-4)GlcNAc(b1-4)GlcNAc
Method in brief: as §1

[3] = biological target: Neu5Ac(a2-3)Gal(b1-4)GlcNAc(b1-2)[Neu5Ac(a2-3)Gal(b1-4)GlcNAc(b1-6)]Man(a1-6)[Neu5Ac(a2-3)Gal(b1-4)GlcNAc(b1-2)Man(a1-3)][GlcNAc(b1-4)]Man(b1-4)GlcNAc(b1-4)GlcNAc
Method in brief: as §1

[4] = biological target: Neu5Ac(a2-3)Gal(b1-4)GlcNAc(b1-3)Gal
Method in brief: as §1

[5] = biological target: Neu5Ac(a2-3)Gal(b1-4)GlcNAc(b1-3)Gal(b1-3)GlcNAc
Method in brief: as §1

[6] = biological target: Neu5Ac(a2-3)Gal(b1-4)GlcNAc(b1-3)Gal(b1-4)GlcNAc
Method in brief: as §1

[7] = biological target: Neu5Ac(a2-3)Gal(b1-4)GlcNAc(b1-3)Gal(b1-4)GlcNAc(b1-2)Man(a1-3)[Neu5Ac(a2-3)Gal(b1-4)GlcNAc(b1-3)Gal(b1-4)GlcNAc(b1-2)Man(a1-6)]Man(b1-4)GlcNAc(b1-4)GlcNAc
Method in brief: as §1

[8] = biological target: Neu5Ac(a2-3)Gal(b1-4)GlcNAc(b1-3)Gal(b1-4)GlcNAc(b1-3)Gal(b1-4)GlcNAc
Method in brief: as §1

[9] = biological target: Neu5Ac(a2-3)Gal(b1-4)GlcNAc(b1-3)Gal(b1-4)GlcNAc(b1-3)Gal(b1-4)GlcNAc(b1-2)Man(a1-3)[Neu5Ac(a2-3)Gal(b1-4)GlcNAc(b1-3)Gal(b1-4)GlcNAc(b1-3)Gal(b1-4)GlcNAc(b1-2)Man(a1-6)]GalNAc
Method in brief: as §1

[10] = biological target: Neu5Ac(a2-3)Gal(b1-4)GlcNAc(b1-3)Gal(b1-4)GlcNAc(b1-3)GalNAc
Method in brief: as §1

[11] = biological target: Neu5Ac(a2-3)Gal(b1-4)GlcNAc(b1-3)Gal(b1-4)GlcNAc(b1-3)[Neu5Ac(a2-3)Gal(b1-4)GlcNAc(b1-3)Gal(b1-4)GlcNAc(b1-6)]GalNAc
Method in brief: as §1

[12] = biological target: Neu5Ac(a2-3)Gal(b1-4)GlcNAc(b1-3)Gal(b1-4)GlcNAc(b1-6)[Gal(b1-3)]GalNAc
Method in brief: as §1

[13] = biological target: Neu5Ac(a2-3)Gal(b1-4)GlcNAc(b1-3)Gal(b1-4)[Fuc(a1-3)]GlcNAc
Method in brief: as §1

[14] = biological target: Neu5Ac(a2-3)Gal(b1-4)GlcNAc(b1-3)GalNAc
Method in brief: as §1

[15] = biological target: Neu5Ac(a2-3)Gal(b1-4)GlcNAc(b1-3)[Neu5Ac(a2-3)Gal(b1-4)GlcNAc(b1-6)]GalNAc
Method in brief: as §1

[16] = biological target: Neu5Ac(a2-3)Gal(b1-4)GlcNAc(b1-6)GalNAc
Method in brief: as §1

[17] = biological target: Neu5Ac(a2-3)Gal(b1-4)GlcNAc(b1-6)[Gal(b1-3)]GalNAc
Method in brief: as §1

[18] = biological target: Neu5Ac(a2-3)Gal(b1-4)GlcNAc(b1-6)[Neu5Ac(a2-3)Gal(b1-3)]GalNAc
Method in brief: as §1

[19] = biological target: Neu5Ac(a2-3)Gal(b1-4)GlcNAc6S
Method in brief: as §1

[20] = biological target: Neu5Ac(a2-3)Gal(b1-4)[Fuc(a1-3)]GlcNAc
Method in brief: as §1

[21] = biological target: Neu5Ac(a2-3)Gal(b1-4)[Fuc(a1-3)]GlcNAc(b1-2)Man
Method in brief: as §1

[22] = biological target: Neu5Ac(a2-3)Gal(b1-4)[Fuc(a1-3)]GlcNAc(b1-3)Gal
Method in brief: as §1

[23] = biological target: Neu5Ac(a2-3)Gal(b1-4)[Fuc(a1-3)]GlcNAc(b1-3)Gal(b1-4)GlcNAc
Method in brief: as §1

[24] = biological target: Neu5Ac(a2-3)Gal(b1-4)[Fuc(a1-3)]GlcNAc(b1-3)Gal(b1-4)[Fuc(a1-3)]GlcNAc(b1-3)Gal(b1-4)[Fuc(a1-3)]GlcNAc
Method in brief: as §1

[25] = biological target: Neu5Ac(a2-3)Gal(b1-4)[Fuc(a1-3)]GlcNAc(b1-3)GalNAc
Method in brief: as §1

[26] = biological target: Neu5Ac(a2-3)Gal(b1-4)[Fuc(a1-3)]GlcNAc(b1-6)[Gal(b1-3)]GalNAc
Method in brief: as §1

[27] = biological target: Neu5Ac(a2-3)Gal(b1-4)[Fuc(a1-3)]GlcNAc(b1-6)[Neu5Ac(a2-3)Gal(b1-3)]GalNAc
Method in brief: as §1

[28] = biological target: Neu5Ac(a2-3)Gal(b1-4)[Fuc(a1-3)]GlcNAc6S
Method in brief: as §1

[29] = biological target: Neu5Ac(a2-3)Gal6S(b1-4)GlcNAc
Method in brief: as §1

[30] = biological target: Neu5Ac(a2-3)Gal6S(b1-4)[Fuc(a1-3)]GlcNAc
Method in brief: as §1

[31] = biological target: Neu5Ac(a2-3)GalNAc
Method in brief: as §1

[32] = biological target: Neu5Ac(a2-3)GalNAc(b1-4)GlcNAc
Method in brief: as §1

[33] = biological target: Neu5Ac(a2-3)[GalNAc(b1-4)]Gal(b1-4)Glc
Method in brief: as §1

[34] = biological target: Neu5Ac(a2-3)[GalNAc(b1-4)]Gal(b1-4)GlcNAc
Method in brief: as §1

[35] = biological target: Neu5Ac(a2-3)[GalNAc(b1-4)]Gal(b1-4)GlcNAc(b1-3)GalNAc
Method in brief: as §1

[36] = biological target: Neu5Ac(a2-3)[Neu5Ac(a2-6)]GalNAc
Method in brief: as §1

[37] = biological target: Neu5Ac(a2-6)Gal
Method in brief: as §1

B1: Epa22 (Candida glabrata) (protein)
chain: MGSSHHHHHHSSGLVPRGSHMKRALSSQNPFGYPIGCSPQSTNVIPGLTMELYSYPIVSGTPPNCYDASYVDPEYPRTGYLKRKMIGKSTGVTGSLNYKFSVEKACMVKYGNLPAGYNYNEPLTVSNFTMLLYGYFKPQTSGIHTFFVNADDLLYINFGAGNAFDCCKREDSKFKLGEYVAYDIWHVDSSKNKVSLNLEKDVYYPIRMFFNNIGKDSSLDLSFSVNGAVEHITDFSGYLYSVPDQPDACPAPIGYDTTCK
glycan array binding signal (z-score) [1]: -0.392 | glycan array binding signal (z-score) [2]: -0.277 | glycan array binding signal (z-score) [3]: -0.386 | glycan array binding signal (z-score) [4]: -0.399 | glycan array binding signal (z-score) [5]: -0.357 | glycan array binding signal (z-score) [6]: -0.349 | glycan array binding signal (z-score) [7]: -0.254 | glycan array binding signal (z-score) [8]: -0.35 | glycan array binding signal (z-score) [9]: -0.278 | glycan array binding signal (z-score) [10]: -0.398 | glycan array binding signal (z-score) [11]: -0.323 | glycan array binding signal (z-score) [12]: -0.248 | glycan array binding signal (z-score) [13]: -0.325 | glycan array binding signal (z-score) [14]: -0.297 | glycan array binding signal (z-score) [15]: -0.257 | glycan array binding signal (z-score) [16]: -0.373 | glycan array binding signal (z-score) [17]: -0.321 | glycan array binding signal (z-score) [18]: -0.42 | glycan array binding signal (z-score) [19]: -0.166 | glycan array binding signal (z-score) [20]: -0.41 | glycan array binding signal (z-score) [21]: -0.347 | glycan array binding signal (z-score) [22]: -0.385 | glycan array binding signal (z-score) [23]: -0.416 | glycan array binding signal (z-score) [24]: -0.375 | glycan array binding signal (z-score) [25]: -0.25 | glycan array binding signal (z-score) [26]: -0.311 | glycan array binding signal (z-score) [27]: -0.187 | glycan array binding signal (z-score) [28]: -0.326 | glycan array binding signal (z-score) [29]: -0.393 | glycan array binding signal (z-score) [30]: -0.37 | glycan array binding signal (z-score) [31]: -0.29 | glycan array binding signal (z-score) [32]: -0.191 | glycan array binding signal (z-score) [33]: -0.403 | glycan array binding signal (z-score) [34]: -0.358 | glycan array binding signal (z-score) [35]: -0.37 | glycan array binding signal (z-score) [36]: -0.307 | glycan array binding signal (z-score) [37]: -0.247
